Test results taken from PubChem BioAssay AID588855 (National Center for Advancing Translational Sciences (NCATS), 2011).
Values joined by “and” are separate entries in the source; they are usually repeats but may differ in a detail not shown here. Identical values can stand only once. Screen size: about 410,000 compounds; about 5,000 (1.2%) were called active. Inconclusive results, whose numbers are uncertain, are shown with a selection of clear calls. Calls follow the shape of the dose curve; as a rule, active = well fitted inhibition curve with a large enough effect; inconclusive = small, poorly fitted or top-dose-only effect; inactive = no such curve, though single readings can be large or run the other way. A potency beside an inconclusive call is a rough fit, not a confirmed value.

Assay: qHTS for Inhibitors of TGF-b; also: nearly all actives have a fitted effect of over 65% in size
Conditions: HepG2 CAGA-GFP TGF-b/SMAD3 reporter, GFP fluorescence, 18 h, TGF-beta stimulated, 500 pg/mL final; series mostly up to 46.1 µM; activity, negative = inhibition: at the top concentration
In short: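 Read-out: total well GFP (ex488/em500-530) summed from mean per-cell fluorescence. Cells: HEPG2 CAGA-GFP, 1% FBS DMEM, 18 h at 37 degrees C with 500 pg/mL final TGF-beta. Unstimulated wells served as the full-inhibition control; stimulated DMSO wells = 0%.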
% is scaled to controls: 0 for no effect and ±100 for the full control effect; potency is read from the fitted curve at half-maximal effect; tags tell the direction and shape of the fitted curve.

| Structure (SMILES) | Potency | activity, negative = inhibition |
| --- | --- | --- |
| COc1cc(OC)cc(C(=O)N[C@H](C(=O)Nc2nc(-c3ccc(OC)c(OC)c3)cs2)C(C)C)c1 | active: 12.6 µM | – |
| O=C(CCl)Nc1ccc(N2CCCCCC2)cc1 | inconclusive: 15.8 µM [inhibitor, single point] | – |
| CN(C)C(=S)NC(=S)Nc1ccc2ccccc2c1 | inconclusive: 12.6 µM [inhibitor, partial curve, poor fit] | – |
| COC(=O)c1sc(NC(=S)NC(=O)c2cccc(Br)c2)nc1C | – | inactive: 17.7% |
| COc1ccc(-n2c(COc3cccc4ccccc34)nnc2SCC(=O)NCc2ccco2)cc1 | inconclusive: 35.5 µM [inhibitor, single point] | – |
| Cc1ccc(CNC(=O)c2ccc(S(=O)(=O)N3CCCCCC3)cc2)cc1 | inconclusive: 35.5 µM [inhibitor, single point] | – |
| CCCCn1nc2cc(C(=O)NCc3ccc(OC(F)(F)F)cc3)ccc2c1OC | inconclusive: 0.251 µM [inhibitor, full curve, poor fit] | – |
| Clc1ccc(SCCOCCN2CCOCC2)cc1 | – | inactive: 4.62% |
| O=C(Nc1ccc(OC(F)F)c(Cl)c1)C(c1ccccc1)c1ccccc1 | active: 22.4 µM | – |
| COc1ccc(NC(=O)C2CCN(S(=O)(=O)c3ccc4c(c3)NC(=O)CO4)CC2)cc1 | – | inactive: -7.57% |
| COc1ccccc1-c1cn[nH]c1-c1ccc(OCc2ccc(F)cc2)cc1O | inconclusive: 35.5 µM [inhibitor, single point] | – |
| O=S(=O)(N1CCCCC1)N1CCN(S(=O)(=O)N2CCCCC2)CC1 | inconclusive: 17.8 µM [inhibitor, single point] | – |
| CCCC1CCc2c(sc(NC(=O)OCC)c2C#N)C1 (stereo not drawn) | – | inactive: 12% |
| O=C(NCCSc1c[nH]c2ccccc12)c1ccc(Cl)cc1 | inconclusive: 35.5 µM [inhibitor, single point] | – |
| CC1(C(=O)Nc2ccc(Cl)c(C(F)(F)F)c2)Cc2c(-c3cccc(C(N)=O)c3)ccnc2O1 (stereo not drawn) | inconclusive: 35.5 µM [inhibitor, single point] | – |
| COc1cc(OC)c2c(C)cc(=O)oc2c1C(CCN1CCOCC1)c1ccc(N(C)C)cc1 (stereo not drawn) | – | inactive: -4.59% |
| O=C1C(Cc2ccccc2)Nc2ncnc(N3CCN(c4ccccc4)CC3)c2N1Cc1ccc(Br)cc1 (stereo not drawn) | inconclusive: 3.16 µM [inhibitor, full curve] and inconclusive: 3.16 µM [inhibitor, single point] | – |
| COc1ccc(S(=O)(=O)N2CCC(c3cc(-c4cccc5ccccc45)n[nH]3)CC2)cc1 | inconclusive: 0.562 µM [inhibitor, partial curve, poor fit] | – |
| COc1ccc(Cn2c(SCc3ccc(C(=O)NCc4ccc(C)cc4)cc3)nc3cccnc32)cc1 | inconclusive: 10 µM [inhibitor, partial curve, poor fit] | – |
| O=C(/C=C/c1ccc(O)cc1)c1ccc(NC2=C(N3CCCCC3)C(=O)c3ccccc3C2=O)cc1 | active: 6.31 µM | – |
| CN(c1ccc(C(=O)N2CCN(Cc3ccccc3)CC2)cc1)S(=O)(=O)c1ccc(Cl)cc1 | inconclusive: 5.01 µM [inhibitor, partial curve, poor fit] | – |
| CCc1ccc(C(=O)c2cn(CC(=O)NCCc3ccccc3)c3nc(C)ccc3c2=O)cc1 | – | inactive: -13.2% |

| Structure (SMILES) | Potency | activity, negative = inhibition |
| --- | --- | --- |
| COc1ccc(C(=O)CC2(O)C(=O)N(Cc3ccccc3)c3ccc(Br)cc32)cc1 (stereo not drawn) | inconclusive: 35.5 µM [inhibitor, single point] | – |
| CC(=O)Nc1ccc(Nc2ncnc3c2cnn3-c2cccc(C)c2)cc1 | inconclusive: 35.5 µM [inhibitor, single point] | – |
| COc1cc(/C=N/n2cnn(Cc3ccccc3Cl)c2=S)cc(OC)c1OC | inconclusive: 3.98 µM [inhibitor, partial curve, poor fit] | – |
| CC(=O)N1CCN(C(=O)CCc2nc3ccccc3c(=O)[nH]2)CC1 | – | inactive: -16.2% |
| COc1ccc(C(O)(CCC(C)C)C(CN2CCOCC2)c2ccccc2)cc1 (stereo not drawn) | inconclusive: 22.4 µM [inhibitor, single point] | – |
| Cc1ccc(S(=O)(=O)NCCC(=O)NC2CCN(Cc3ccccc3)CC2)cc1 | inconclusive: 35.5 µM [inhibitor, single point] | – |
| CCOc1cc(C)nc(NCc2ccccc2)n1 | inconclusive: 35.5 µM [inhibitor, single point] | – |
| Cc1cccc(OCCCN2CCOCC2)c1 | – | inactive: 5.63% |
| COc1ccc(Nc2nc(Cl)nc(Nc3ccc(OC)cc3OC)n2)c(OC)c1 | – | inactive: -0.397% |
| CCC1Nc2ncnc(N3CCc4ccccc4C3)c2N(Cc2ccc(Cl)cc2)C1=O (stereo not drawn) | inconclusive: 35.5 µM [inhibitor, single point] | – |
| CCC/C=C/c1ccc(CN2C(CC(C)C)C(=O)N(Cc3cn(CCC4OCCO4)nn3)CCS2(=O)=O)cc1 (stereo not drawn) | inconclusive: 35.5 µM [inhibitor, single point] | – |
| COc1ccc(-c2nn(C)c3sc(C(=O)NCCN(C)C)cc23)cc1OC | inactive | – |
| CCC1CCCCN1CCCNC(=O)c1ccc2c(c1)c(C)c(C)n2CC (stereo not drawn) | inactive | – |
| CCOC(=O)c1ccc(CN(Cc2ccccc2)S(=O)(=O)c2cccc([N+](=O)[O-])c2)cc1 | inconclusive: 3.55 µM [inhibitor, single point] | – |
| COc1cccc2sc(N(CCCN(C)C)C(=O)c3ccc(S(=O)(=O)N4CCc5ccccc5C4)cc3)nc12 | inconclusive: 35.5 µM [inhibitor, single point] | – |
| O=C(CCn1cccc1)NCc1ccccc1 | inconclusive: 25.1 µM [inhibitor, single point] | – |
| CCN1CCc2c(C#N)c(N3CCCCC3)nc(NCc3ccccc3)c2C1 | active: 22.4 µM | – |
| c1ccc(CC2CCN(C3=Nc4cccc5cccc3c45)CC2)cc1 | inconclusive: 35.5 µM [inhibitor, single point] | – |
| Cn1ncc2c(=S)nc(Cl)[nH]c21 | inconclusive: 17.8 µM [inhibitor, partial curve, poor fit] | – |
| Cc1ccc(N2CCN(C(=O)c3cc(C(=O)c4ccccc4C)c[nH]3)CC2)c(C)c1 | active: 17.8 µM | – |
| Cc1ccc(C)c(NC(=O)c2ccccc2NS(=O)(=O)c2cc([N+](=O)[O-])ccc2C)c1 | active: 2.51 µM | – |
